Laboratory results as given in the antibiotic and cytotoxicity screens of Wong et al. (2023).
This is one part of the list.

Experiments:
[1] = tested on: HSkMC (human skeletal muscle cells); test: cytotoxicity call (relative viability < 0.9); settings: 10 µM
[2] = tested on: HepG2; test: cytotoxicity call (relative viability < 0.9); settings: 10 µM
[3] = tested on: S. aureus RN4220; test: growth inhibition call (relative growth <= 0.2); settings: 50 µM

COc1ccc(NC(=O)N(C)C[C@H]2OCCCC[C@@H](C)Oc3ccc(NC(=O)c4ccncc4)cc3C(=O)N([C@@H](C)CO)C[C@H]2C)cc1
inactive: cytotoxicity call [1] | cytotoxicity call [2] | growth inhibition call [3]

O=C(/C=C/c1ccccc1)C1CC1
inactive: cytotoxicity call [1] | cytotoxicity call [2] | growth inhibition call [3]

C[C@H](CO)N1C[C@H](C)[C@@H](CN(C)C(=O)Nc2ccccc2)OCCCC[C@H](C)Oc2ccc(NS(=O)(=O)c3cccs3)cc2C1=O
inactive: cytotoxicity call [1] | cytotoxicity call [2] | growth inhibition call [3]

CCc1cc(=O)oc2cc(O[C@@H](C)C(=O)N[C@@H](CCCNC(=N)N)C(=O)O)ccc12
inactive: cytotoxicity call [1] | cytotoxicity call [2] | growth inhibition call [3]

NC(=S)Nc1ccc(S(N)(=O)=O)cc1
inactive: cytotoxicity call [1] | cytotoxicity call [2] | growth inhibition call [3]

O=C(C[C@H]1CC[C@@H]2[C@H](COC[C@H](O)CN2C(=O)Nc2cccc(F)c2)O1)NCc1ccccc1Cl
inactive: cytotoxicity call [1] | cytotoxicity call [2] | growth inhibition call [3]

C[C@@H]1CN([C@H](C)CO)C(=O)c2cc(NC(=O)c3ccncc3)ccc2O[C@H]1CN(C)S(=O)(=O)c1ccc(F)cc1
inactive: cytotoxicity call [1] | cytotoxicity call [2] | growth inhibition call [3]

CC(C)C#Cc1cnc2c(c1)C(=O)N([C@H](C)CO)C[C@@H](C)[C@@H](CN(C)C(=O)c1ccc3c(c1)OCO3)O2
inactive: cytotoxicity call [1] | cytotoxicity call [2] | growth inhibition call [3]

C[C@@H]1CN([C@@H](C)CO)C(=O)c2cc(NS(=O)(=O)c3ccc(Cl)cc3)ccc2O[C@@H](C)CCCCO[C@H]1CN(C)C(=O)Cc1ccccc1
inactive: cytotoxicity call [1] | cytotoxicity call [2] | growth inhibition call [3]

C[C@@H](NC(=O)C[C@H]1C=C[C@@H](NC(=O)CN2CCOCC2)[C@@H](CO)O1)c1ccccc1
inactive: cytotoxicity call [1] | cytotoxicity call [2] | growth inhibition call [3]
